# “And” between values parts separate entries of the source, which are not always exact repeats. Equal values may be shown once. About 230 (0.21%) of roughly 110,000 compounds showed an effect of 50% or more. The list shows a part of the results.
# Biological target: DPAP1 (Plasmodium falciparum, UniProt Q8IIJ9)
# Assay: primary screen, percent inhibition; read by cleavage of a fluorogenic dipeptide substrate; higher = more effect of the substance
# Design: species or system P. falciparum D10 trophozoite lysates; single well
# 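Further: 30 min substrate incubation versus DMSO and 10 µM JCP410 controls.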
# DPAP1, sequence (Q8IIJ9 whole entry, looked up): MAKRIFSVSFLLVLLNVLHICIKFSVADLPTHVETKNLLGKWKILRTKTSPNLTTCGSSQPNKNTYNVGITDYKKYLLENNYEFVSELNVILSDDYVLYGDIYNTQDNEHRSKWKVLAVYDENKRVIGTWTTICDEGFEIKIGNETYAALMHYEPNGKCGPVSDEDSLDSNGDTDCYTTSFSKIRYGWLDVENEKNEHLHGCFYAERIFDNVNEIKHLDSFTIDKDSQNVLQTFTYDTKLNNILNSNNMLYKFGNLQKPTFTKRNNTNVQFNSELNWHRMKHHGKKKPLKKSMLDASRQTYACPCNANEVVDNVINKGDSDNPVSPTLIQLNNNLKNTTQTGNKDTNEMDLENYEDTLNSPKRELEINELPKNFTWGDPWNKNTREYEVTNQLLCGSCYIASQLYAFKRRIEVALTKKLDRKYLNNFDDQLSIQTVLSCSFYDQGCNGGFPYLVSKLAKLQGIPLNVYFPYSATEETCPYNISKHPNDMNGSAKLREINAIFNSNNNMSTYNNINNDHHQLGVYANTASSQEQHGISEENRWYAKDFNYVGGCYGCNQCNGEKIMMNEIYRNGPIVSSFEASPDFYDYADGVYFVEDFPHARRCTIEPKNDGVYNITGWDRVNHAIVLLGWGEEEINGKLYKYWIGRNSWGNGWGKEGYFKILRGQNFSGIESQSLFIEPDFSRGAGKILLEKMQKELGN
row,SMILES,% Inhibition @ 10 uM
1,Cc1ccc(CNC(=O)C2CCCN2S(=O)(=O)c2ccc3[nH]c(-c4ccccc4)nc3c2)cc1 (centres unmarked),2.51%
2,CC(C)Oc1ccccc1/C=C1\SC(N2CCOCC2)=NC1=O,-3.06%
3,CCOc1ccc(C(=O)C2=C(O)C(=O)N(Cc3ccccc3)C2c2cccc(O)c2)cc1 (centres unmarked),1.93%
4,Nn1c(COc2ccccc2)nnc1SCc1cc(O)nc2ccccc12,-4.35%
5,CC1CC(C)CN(C(=O)CSc2nnc(Cc3ccccc3)o2)C1 (centres unmarked),8.63%
6,COc1cccc(OCC(O)Cn2c(C)nc3ccccc32)c1 (centres unmarked),-9.45%
7,O=S(=O)(NCc1ccccn1)c1ccc(Br)cc1Br,4.1%
8,O=C(CSCCc1ccccn1)Nc1nccs1,-3.21%
9,COc1ccc(CCC(=O)N(C)Cc2c(C)nn(C)c2C)cc1,6.51%
10,COc1cc(C2C(C#N)=C(N)Oc3[nH]nc(-c4ccc(Cl)cc4)c32)cc(OC)c1OC (centres unmarked),5.18%
11,Cc1ccc(Cl)cc1NC(=O)CN(c1cccc2ccccc12)S(C)(=O)=O,-6.77%
12,Cc1ccc(OCCCCCN2CCNCC2)c(C(C)(C)C)c1,-10%
13,COc1ccc(NCc2cccnc2)cc1,4.54%
14,Cc1cc(CSc2ccccc2)ccc1NC(=O)CN1C(=O)c2ccccc2S1(=O)=O,-1.46%
15,N#C/C(=C/c1ccc(Cl)cc1Cl)C(=O)Nc1ccc(Cl)cc1,1%
16,c1ccc(OCCCCCCN2CCCCC2)cc1,3.74%
17,N#Cc1ccc(Oc2ccc(Cl)cc2)cc1C#N,-2.18%
18,COc1ccc(OC)c(N(CC(=O)Nc2cccc3ccccc23)S(C)(=O)=O)c1,0.909%
19,COc1ccc(C2CC(c3ccc(Br)cc3)=NN2c2ccccc2Cl)cc1 (centres unmarked),-0.0267%
20,C#CCOc1ccc(/C=C2/NC(=O)N(Cc3ccccc3F)C2=O)cc1OC,-6.37%
21,COc1ccccc1-c1cc(-c2ccccc2)nc(SCC(N)=O)c1C#N,-5.62%
22,COc1ccc(-c2nc3scc(CCNC(=O)c4ccc(Br)o4)n3n2)cc1,0.00353%
23,COc1ccc(C(=O)Nc2cccc(C)c2)cc1,-3.04%
24,O=c1[nH]c(=O)n(CCc2ccccc2)c2nc[nH]c12,1.91%
25,Cc1ccc(C(=O)C2=C(O)C(=O)N(CCCn3ccnc3)C2c2ccc(F)cc2)cc1 (centres unmarked),3.35%

row,SMILES,% Inhibition @ 10 uM
1,Cc1ccc(-n2nc3c(=O)n(CCCC(=O)NC4CCCc5ccccc54)nc(C)c3c2C)cc1 (centres unmarked),3.33%
2,COc1ccc(CNc2nc(-c3ccco3)nn2S(=O)(=O)c2ccc(C)cc2)cc1,-1.47%
3,CN(C)CCCNC(=O)c1cc(-c2ccc(Cl)s2)nc2ccccc12,-2.83%
4,COc1cccc(C2(O)CC(C(F)(F)F)=NN2C(=O)c2cccnc2)c1 (centres unmarked),13.7%
5,O=C1NC(=S)N(c2ccc(Cl)cc2)C(=O)/C1=C/c1c[nH]c2ccccc12,3.76%
6,C(=C\c1nn2c(-c3ccncc3)nnc2s1)/c1ccccc1,6.01%
7,CNC(=O)CN(c1ccc(F)cc1)S(=O)(=O)c1ccc2c(c1)OCCO2,1.65%
8,Cc1ccc(OCCCCN2CCCC2)cc1,5.35%
9,COc1cccc(C(=O)Nc2cc(C)c(C)cc2O)c1,4% and -5.13%
10,Cc1ccc(NC(=O)CN(c2ccc(F)cc2)S(C)(=O)=O)c(C)c1,-1.43%
11,N#CCCSc1nccn1Cc1ccccc1,-0.239%
12,COc1cccc(C(=O)NC(C)c2cc3c(cc2Cl)OCCO3)c1 (centres unmarked),-3.09%
13,Cc1ccc(C)c(CN2CCN(c3ccccc3)CC2)c1,6.25%
14,COc1ccccc1CN1CCN(Cc2ccc3ccccc3c2)CC1,16.7%
15,CC1CCN(C(=O)c2ccc(COc3cccc4ccccc34)cc2)CC1,3.72%
16,Cc1nc2ccc(S(=O)(=O)NC(CC(C)C)C(=O)N3CC=C(c4ccccc4)CC3)cc2s1 (centres unmarked),-4.97%
17,CC(=O)C1=C(O)C(=O)N(CO)C1c1ccccc1 (centres unmarked),-9.88%
18,O=C1c2ccc(Br)cc2C(=O)N1c1ccc(Cl)cn1,-4.31%
19,CCC1CCCCN1CCCNC(=O)c1cc2c(O)nc3ccccc3c2n1C (centres unmarked),3.63%
20,CN(CC(=O)O)S(=O)(=O)c1ccc2nc(O)c(O)nc2c1,-0.458%
21,O=C(O)c1ccc(CNCCCc2ccccc2)s1,-6.01%
22,Cc1ccc(NC(=O)c2ccc(Cl)c(Cl)c2)nc1,-2.65%
23,CC1=C(c2ccc(C)c(C)c2)S(=O)(=O)N=C1N(Cc1ccccc1)C(C)C,6.91%
24,Cc1ccc2nc(Cl)c(C3CC(c4cccs4)=NN3S(C)(=O)=O)cc2c1 (centres unmarked),-5.49%
25,COc1ccc(SCCc2ccncc2)cc1,4.98%

# Reference: paper PMC6919601, “Identification of Plasmodium dipeptidyl aminopeptidase allosteric inhibitors by high throughput screening” (PLoS ONE, 2019)
